{"source": "patent US20260062466A1", "binders": {"B1": {"name": "506.C07 (antibody, V domains shown)", "VH": "QLQLQESGPGLVKPSETLSLTCTVSGGSISSSSYYWGWIRQPPGKGLEWIGSIYYSGSTYYNPSLKSRVTISVDTSKNQFSLKLSSVTAADTAVYYCARDTPYCSSTSCYMGDFDYWGQGTLVTVSS", "VL": "[about 100 residues left out here]PLFTFGPGTKVDIK"}, "B2": {"name": "506.A09 (antibody, V domains shown)", "VH": "QVQLVESGGGVVQPGRSLRLSCAASGFTFSSYAMHWVRQAPGKGLEWVAVISYDGSNKYYADSVKGRFTISRDNSKNTLYLQMNSLRAEDTAVYYCARSPWELDAFDIWGQGTMVTVSS", "VL": "[about 100 residues left out here]FGPGTKVDIK"}, "B3": {"name": "520.A06 (antibody, V domains shown)", "VH": "B2 VH with V50L, I51V, S99A, P100E, D104G, A105S, I108P, M114L", "VL": "[about 100 residues left out here]"}}, "test_in_all_cases": "cell-based or functional assay", "key": {"[1]": {"biological_target": "CHIKV-37997 (virus) (Chikungunya virus strain 37997)"}, "[2]": {"biological_target": "CHIKV-LR 2006 (virus) (Chikungunya virus strain LR 2006)"}, "[3]": {"biological_target": "ONNV (O'nyong'nyong virus, MP30) envelope glycoproteins (O'nyong'nyong virus strain MP30)"}}, "note": "Residue numbers refer to the chain shown, from its start.", "data": [{"binder": "B1", "values": [{"measurement": "FRNT neutralisation, 37997 EC50", "setting": "[1]", "value": 0.333, "unit": "µg/mL"}, {"measurement": "FRNT neutralisation, LR 2006 EC50", "setting": "[2]", "value": 0.515, "unit": "µg/mL"}]}, {"binder": "B2", "values": [{"measurement": "FRNT neutralisation, 37997 EC50", "setting": "[1]", "value": 0.067, "unit": "µg/mL"}, {"measurement": "FRNT neutralisation of ONNV, EC50", "setting": "[3]", "value": "< 0.05", "unit": "µg/mL"}, {"measurement": "FRNT neutralisation, LR 2006 EC50", "setting": "[2]", "value": 0.055, "unit": "µg/mL"}]}, {"binder": "B3", "values": [{"measurement": "FRNT neutralisation, 37997 EC50", "setting": "[1]", "value": 0.06, "unit": "µg/mL"}, {"measurement": "FRNT neutralisation of ONNV, EC50", "setting": "[3]", "value": "< 0.05", "unit": "µg/mL"}, {"measurement": "FRNT neutralisation, LR 2006 EC50", "setting": "[2]", "value": 0.005, "unit": "µg/mL"}]}]}
